Reference: publication PMC11549776
No constants are given. Whether binding was seen depends on the method and setting. In cells and extracts the contact can be indirect. Some binding calls cover weakened binding; strength is not graded here. For some assays here: Where a sequence is shown, tags or fusion partners need not be part of it.

The chains behind the UniProt entries cited, without tags or fusion partners. Where a name states a change or a piece, a line headed by the entry shows the natural chain unless it says otherwise.
UniProt Q13315: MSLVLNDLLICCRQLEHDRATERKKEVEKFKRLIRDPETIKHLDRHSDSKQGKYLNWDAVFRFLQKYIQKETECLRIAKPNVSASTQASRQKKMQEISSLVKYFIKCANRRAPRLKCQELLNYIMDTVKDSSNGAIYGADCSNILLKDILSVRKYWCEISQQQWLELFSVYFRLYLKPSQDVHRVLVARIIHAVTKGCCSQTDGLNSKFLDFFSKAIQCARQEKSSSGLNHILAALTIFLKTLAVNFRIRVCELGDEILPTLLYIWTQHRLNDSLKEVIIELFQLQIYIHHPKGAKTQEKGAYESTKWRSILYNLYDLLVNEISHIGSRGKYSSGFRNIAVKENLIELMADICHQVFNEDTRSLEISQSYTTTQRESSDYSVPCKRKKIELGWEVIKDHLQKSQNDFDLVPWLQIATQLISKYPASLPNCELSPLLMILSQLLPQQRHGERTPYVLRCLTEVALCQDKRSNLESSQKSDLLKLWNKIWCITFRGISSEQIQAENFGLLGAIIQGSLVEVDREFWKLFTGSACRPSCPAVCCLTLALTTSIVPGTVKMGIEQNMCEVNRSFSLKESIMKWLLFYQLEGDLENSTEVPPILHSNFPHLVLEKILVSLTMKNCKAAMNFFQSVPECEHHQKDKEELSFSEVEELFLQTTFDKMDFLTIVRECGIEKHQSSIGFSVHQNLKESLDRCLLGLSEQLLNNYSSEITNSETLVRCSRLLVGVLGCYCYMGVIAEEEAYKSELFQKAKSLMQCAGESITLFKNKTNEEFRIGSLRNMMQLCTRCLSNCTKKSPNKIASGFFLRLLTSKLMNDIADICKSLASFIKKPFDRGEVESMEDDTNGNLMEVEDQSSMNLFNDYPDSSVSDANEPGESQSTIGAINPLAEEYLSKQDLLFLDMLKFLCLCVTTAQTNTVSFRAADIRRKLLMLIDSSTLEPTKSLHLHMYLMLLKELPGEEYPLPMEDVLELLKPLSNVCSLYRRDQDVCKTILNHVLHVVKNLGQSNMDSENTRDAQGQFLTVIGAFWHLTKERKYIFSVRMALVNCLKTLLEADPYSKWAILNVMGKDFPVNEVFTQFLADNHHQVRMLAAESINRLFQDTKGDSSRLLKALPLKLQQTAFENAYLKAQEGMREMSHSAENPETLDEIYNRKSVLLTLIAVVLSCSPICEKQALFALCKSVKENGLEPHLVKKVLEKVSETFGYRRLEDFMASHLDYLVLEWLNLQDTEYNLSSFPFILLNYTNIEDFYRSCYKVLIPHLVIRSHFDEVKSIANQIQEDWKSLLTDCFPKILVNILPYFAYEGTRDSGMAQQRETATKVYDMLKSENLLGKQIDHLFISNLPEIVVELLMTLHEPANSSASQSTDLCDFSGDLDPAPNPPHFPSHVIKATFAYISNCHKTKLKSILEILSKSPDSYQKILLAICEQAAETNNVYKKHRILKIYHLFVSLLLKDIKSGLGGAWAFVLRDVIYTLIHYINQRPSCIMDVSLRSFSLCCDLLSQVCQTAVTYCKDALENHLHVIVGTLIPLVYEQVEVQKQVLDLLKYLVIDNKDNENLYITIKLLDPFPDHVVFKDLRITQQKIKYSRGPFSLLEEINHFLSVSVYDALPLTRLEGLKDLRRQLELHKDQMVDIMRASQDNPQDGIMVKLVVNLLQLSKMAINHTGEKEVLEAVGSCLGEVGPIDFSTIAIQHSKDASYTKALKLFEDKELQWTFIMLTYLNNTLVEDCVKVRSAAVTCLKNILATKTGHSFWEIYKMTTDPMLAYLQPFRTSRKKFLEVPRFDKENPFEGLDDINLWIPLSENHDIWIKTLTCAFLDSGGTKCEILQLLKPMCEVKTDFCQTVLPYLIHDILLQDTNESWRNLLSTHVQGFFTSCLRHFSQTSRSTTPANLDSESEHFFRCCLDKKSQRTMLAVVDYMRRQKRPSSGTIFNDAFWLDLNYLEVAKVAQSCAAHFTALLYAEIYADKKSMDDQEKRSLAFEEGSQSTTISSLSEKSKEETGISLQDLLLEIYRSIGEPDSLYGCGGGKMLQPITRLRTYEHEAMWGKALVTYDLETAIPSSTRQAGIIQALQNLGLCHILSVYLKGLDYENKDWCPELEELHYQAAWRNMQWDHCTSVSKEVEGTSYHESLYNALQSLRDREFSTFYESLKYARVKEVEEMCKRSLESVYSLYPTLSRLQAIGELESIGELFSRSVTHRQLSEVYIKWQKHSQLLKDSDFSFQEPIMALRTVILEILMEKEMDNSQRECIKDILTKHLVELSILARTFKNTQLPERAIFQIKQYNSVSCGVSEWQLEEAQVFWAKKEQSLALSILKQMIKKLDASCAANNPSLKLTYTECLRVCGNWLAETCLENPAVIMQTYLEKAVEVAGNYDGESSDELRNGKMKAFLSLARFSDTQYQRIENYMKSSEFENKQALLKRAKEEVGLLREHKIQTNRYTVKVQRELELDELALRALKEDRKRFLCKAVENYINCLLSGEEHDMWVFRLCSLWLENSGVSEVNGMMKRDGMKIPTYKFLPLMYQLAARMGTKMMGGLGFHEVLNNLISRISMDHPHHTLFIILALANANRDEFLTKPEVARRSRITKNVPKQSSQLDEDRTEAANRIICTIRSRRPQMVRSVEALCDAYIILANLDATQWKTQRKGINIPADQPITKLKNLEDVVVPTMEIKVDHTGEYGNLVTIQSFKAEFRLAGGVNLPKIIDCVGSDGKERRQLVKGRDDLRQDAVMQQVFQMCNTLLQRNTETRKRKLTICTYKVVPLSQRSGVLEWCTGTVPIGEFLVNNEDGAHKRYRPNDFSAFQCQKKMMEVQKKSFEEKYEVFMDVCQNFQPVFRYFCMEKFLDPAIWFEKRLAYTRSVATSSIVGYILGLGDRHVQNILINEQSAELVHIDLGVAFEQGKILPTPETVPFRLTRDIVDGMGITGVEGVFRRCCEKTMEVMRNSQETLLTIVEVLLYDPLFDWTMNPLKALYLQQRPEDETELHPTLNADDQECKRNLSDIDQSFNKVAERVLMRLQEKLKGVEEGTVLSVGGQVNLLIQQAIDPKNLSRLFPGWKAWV

Experiments:
[1] = biological target: ATM (ataxia telangiectasia mutated), endogenous (human (endogenous in HIEC-6)) (UniProt Q13315); experiment: proximity ligation; Duolink In Situ Red Mouse/Rabbit kit on fixed, permeabilised HIEC-6 cells; endogenous ATM and USP15
[2] = biological target: ATM (ataxia telangiectasia mutated), endogenous (human (endogenous in HIEC-6)) (UniProt Q13315); experiment: co-IP; reciprocal co-IP from HIEC-6 cell lysates, indicated antibodies at 4 °C overnight, protein A/G, immunoblot
[3] = biological target: Myc-ATM (ataxia telangiectasia mutated) (UniProt Q13315); experiment: co-IP; HEK293T cells expressing Flag-USP15 WT or C298A and Myc-ATM; anti-Flag and anti-Myc antibodies
GST-ATM = GST-ATM (UniProt Q13315); experiment: pull-down; bacterially expressed GST or GST-ATM incubated with Flag-USP15 WT or C298A lysed from HEK293T cells; GST Protein Interaction Pull-Down Kit; analysed by Coomassie Brilliant Blue; only the target purified
[4] = biological target: Myc-ATM (ataxia telangiectasia mutated) (UniProt Q13315); experiment: co-IP; ATM expressed together with USP15 or its truncated mutants; cell line not stated

Row | Binder | binding (GST-ATM) | binding [1] | binding [2] | binding [3] | binding [4]
1 | USP15 (ubiquitin-specific protease 15), endogenous (enzyme, UniProt Q9Y4E8 1-981) MAEGGAADLDTQRSDIATLLKTSLRKGDTWYLVDSRWFKQWKKYVGFDSWDKYQMGDQNVYPGPIDNSGLLKDGDAQSLKEHLIDELDYILLPTEGWNKLVSWYTLMEGQEPIARKVVEQGMFVKHCKVEVYLTELKLCENGNMNNVVTRRFSKADTIDTIEKEIRKIFSIPDEKETRLWNKYMSNTFEPLNKPDSTIQDAGLYQGQVLVIEQKNEDGTWPRGPSTPKSPGASNFSTLPKISPSSLSNNYNNMNNRNVKNSNYCLPSYTAYKNYDYSEPGRNNEQPGLCGLSNLGNTCFMNSAIQCLSNTPPLTEYFLNDKYQEELNFDNPLGMRGEIAKSYAELIKQMWSGKFSYVTPRAFKTQVGRFAPQFSGYQQQDCQELLAFLLDGLHEDLNRIRKKPYIQLKDADGRPDKVVAEEAWENHLKRNDSIIVDIFHGLFKSTLVCPECAKISVTFDPFCYLTLPLPMKKERTLEVYLVRMDPLTKPMQYKVVVPKIGNILDLCTALSALSGIPADKMIVTDIYNHRFHRIFAMDENLSSIMERDDIYVFEININRTEDTEHVIIPVCLREKFRHSSYTHHTGSSLFGQPFLMAVPRNNTEDKLYNLLLLRMCRYVKISTETEETEGSLHCCKDQNINGNGPNGIHEEGSPSEMETDEPDDESSQDQELPSENENSQSEDSVGGDNDSENGLCTEDTCKGQLTGHKKRLFTFQFNNLGNTDINYIKDDTRHIRFDDRQLRLDERSFLALDWDPDLKKRYFDENAAEDFEKHESVEYKPPKKPFVKLKDCIELFTTKEKLGAEDPWYCPNCKEHQQATKKLDLWSLPPVLVVHLKRFSYSRYMRDKLDTLVDFPINDLDMSEFLINPNAGPCRYNLIAVSNHYGGMGGGHYTAFAKNKDDGKWYYFDDSSVSTASEDQIVSKAAYVLFYQRQDTFSGTGFFPLDRETKGASAATGIPLESDEDSNDNDNDIENENCMHTN |  | binds | binds |  | 
2 | USP15 D3 deletion mutant (deletion residues 740–981) (domain or fragment, UniProt Q9Y4E8 1-739) MAEGGAADLDTQRSDIATLLKTSLRKGDTWYLVDSRWFKQWKKYVGFDSWDKYQMGDQNVYPGPIDNSGLLKDGDAQSLKEHLIDELDYILLPTEGWNKLVSWYTLMEGQEPIARKVVEQGMFVKHCKVEVYLTELKLCENGNMNNVVTRRFSKADTIDTIEKEIRKIFSIPDEKETRLWNKYMSNTFEPLNKPDSTIQDAGLYQGQVLVIEQKNEDGTWPRGPSTPKSPGASNFSTLPKISPSSLSNNYNNMNNRNVKNSNYCLPSYTAYKNYDYSEPGRNNEQPGLCGLSNLGNTCFMNSAIQCLSNTPPLTEYFLNDKYQEELNFDNPLGMRGEIAKSYAELIKQMWSGKFSYVTPRAFKTQVGRFAPQFSGYQQQDCQELLAFLLDGLHEDLNRIRKKPYIQLKDADGRPDKVVAEEAWENHLKRNDSIIVDIFHGLFKSTLVCPECAKISVTFDPFCYLTLPLPMKKERTLEVYLVRMDPLTKPMQYKVVVPKIGNILDLCTALSALSGIPADKMIVTDIYNHRFHRIFAMDENLSSIMERDDIYVFEININRTEDTEHVIIPVCLREKFRHSSYTHHTGSSLFGQPFLMAVPRNNTEDKLYNLLLLRMCRYVKISTETEETEGSLHCCKDQNINGNGPNGIHEEGSPSEMETDEPDDESSQDQELPSENENSQSEDSVGGDNDSENGLCTEDTCKGQLTGHKKRLFTFQFNNLGNTDINYIKDDTRHIRFDDR |  |  |  |  | no binding

More lines, main results first:

Row | binding (GST-ATM) | Binder | binding [1] | binding [2] | binding [3] | binding [4]
3 | binds | Flag-USP15 C298A mutant (catalytically inactive mutant of USP15) (enzyme, UniProt Q9Y4E8 1-981) MAEGGAADLDTQRSDIATLLKTSLRKGDTWYLVDSRWFKQWKKYVGFDSWDKYQMGDQNVYPGPIDNSGLLKDGDAQSLKEHLIDELDYILLPTEGWNKLVSWYTLMEGQEPIARKVVEQGMFVKHCKVEVYLTELKLCENGNMNNVVTRRFSKADTIDTIEKEIRKIFSIPDEKETRLWNKYMSNTFEPLNKPDSTIQDAGLYQGQVLVIEQKNEDGTWPRGPSTPKSPGASNFSTLPKISPSSLSNNYNNMNNRNVKNSNYCLPSYTAYKNYDYSEPGRNNEQPGLCGLSNLGNTAFMNSAIQCLSNTPPLTEYFLNDKYQEELNFDNPLGMRGEIAKSYAELIKQMWSGKFSYVTPRAFKTQVGRFAPQFSGYQQQDCQELLAFLLDGLHEDLNRIRKKPYIQLKDADGRPDKVVAEEAWENHLKRNDSIIVDIFHGLFKSTLVCPECAKISVTFDPFCYLTLPLPMKKERTLEVYLVRMDPLTKPMQYKVVVPKIGNILDLCTALSALSGIPADKMIVTDIYNHRFHRIFAMDENLSSIMERDDIYVFEININRTEDTEHVIIPVCLREKFRHSSYTHHTGSSLFGQPFLMAVPRNNTEDKLYNLLLLRMCRYVKISTETEETEGSLHCCKDQNINGNGPNGIHEEGSPSEMETDEPDDESSQDQELPSENENSQSEDSVGGDNDSENGLCTEDTCKGQLTGHKKRLFTFQFNNLGNTDINYIKDDTRHIRFDDRQLRLDERSFLALDWDPDLKKRYFDENAAEDFEKHESVEYKPPKKPFVKLKDCIELFTTKEKLGAEDPWYCPNCKEHQQATKKLDLWSLPPVLVVHLKRFSYSRYMRDKLDTLVDFPINDLDMSEFLINPNAGPCRYNLIAVSNHYGGMGGGHYTAFAKNKDDGKWYYFDDSSVSTASEDQIVSKAAYVLFYQRQDTFSGTGFFPLDRETKGASAATGIPLESDEDSNDNDNDIENENCMHTN |  |  | binds | 
4 | binds | Flag-USP15 wild-type (ubiquitin-specific protease 15) (enzyme, UniProt Q9Y4E8 1-981) MAEGGAADLDTQRSDIATLLKTSLRKGDTWYLVDSRWFKQWKKYVGFDSWDKYQMGDQNVYPGPIDNSGLLKDGDAQSLKEHLIDELDYILLPTEGWNKLVSWYTLMEGQEPIARKVVEQGMFVKHCKVEVYLTELKLCENGNMNNVVTRRFSKADTIDTIEKEIRKIFSIPDEKETRLWNKYMSNTFEPLNKPDSTIQDAGLYQGQVLVIEQKNEDGTWPRGPSTPKSPGASNFSTLPKISPSSLSNNYNNMNNRNVKNSNYCLPSYTAYKNYDYSEPGRNNEQPGLCGLSNLGNTCFMNSAIQCLSNTPPLTEYFLNDKYQEELNFDNPLGMRGEIAKSYAELIKQMWSGKFSYVTPRAFKTQVGRFAPQFSGYQQQDCQELLAFLLDGLHEDLNRIRKKPYIQLKDADGRPDKVVAEEAWENHLKRNDSIIVDIFHGLFKSTLVCPECAKISVTFDPFCYLTLPLPMKKERTLEVYLVRMDPLTKPMQYKVVVPKIGNILDLCTALSALSGIPADKMIVTDIYNHRFHRIFAMDENLSSIMERDDIYVFEININRTEDTEHVIIPVCLREKFRHSSYTHHTGSSLFGQPFLMAVPRNNTEDKLYNLLLLRMCRYVKISTETEETEGSLHCCKDQNINGNGPNGIHEEGSPSEMETDEPDDESSQDQELPSENENSQSEDSVGGDNDSENGLCTEDTCKGQLTGHKKRLFTFQFNNLGNTDINYIKDDTRHIRFDDRQLRLDERSFLALDWDPDLKKRYFDENAAEDFEKHESVEYKPPKKPFVKLKDCIELFTTKEKLGAEDPWYCPNCKEHQQATKKLDLWSLPPVLVVHLKRFSYSRYMRDKLDTLVDFPINDLDMSEFLINPNAGPCRYNLIAVSNHYGGMGGGHYTAFAKNKDDGKWYYFDDSSVSTASEDQIVSKAAYVLFYQRQDTFSGTGFFPLDRETKGASAATGIPLESDEDSNDNDNDIENENCMHTN |  |  | binds | binds
